Publication PMC6453939
Read-outs that look alike come from different tables or passages of the source. These are yes or no findings as the source states them, for the method shown. For some assays here: Binding seen in cells or lysates may run through a third protein. Some binding calls cover weakened binding; strength is not graded here. Blank lines part the entries; values can stand above or below the molecule they belong to.

The chains behind the UniProt entries cited, without tags or fusion partners. Where a name states a change or a piece, a line headed by the entry shows the natural chain unless it says otherwise. A line that says so, or that is headed by a name, gives the form on record, which may keep a tag or linker.
UniProt Q12846: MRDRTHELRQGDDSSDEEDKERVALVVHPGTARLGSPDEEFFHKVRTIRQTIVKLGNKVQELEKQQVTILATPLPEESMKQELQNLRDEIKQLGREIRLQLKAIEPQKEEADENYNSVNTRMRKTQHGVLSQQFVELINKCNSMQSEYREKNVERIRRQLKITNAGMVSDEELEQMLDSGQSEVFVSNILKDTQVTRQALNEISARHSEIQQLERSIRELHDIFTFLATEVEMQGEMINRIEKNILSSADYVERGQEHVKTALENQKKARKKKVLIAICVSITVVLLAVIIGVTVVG
Vps13B (human (endogenous in HeLa)) (Q7Z7G8-2, form named): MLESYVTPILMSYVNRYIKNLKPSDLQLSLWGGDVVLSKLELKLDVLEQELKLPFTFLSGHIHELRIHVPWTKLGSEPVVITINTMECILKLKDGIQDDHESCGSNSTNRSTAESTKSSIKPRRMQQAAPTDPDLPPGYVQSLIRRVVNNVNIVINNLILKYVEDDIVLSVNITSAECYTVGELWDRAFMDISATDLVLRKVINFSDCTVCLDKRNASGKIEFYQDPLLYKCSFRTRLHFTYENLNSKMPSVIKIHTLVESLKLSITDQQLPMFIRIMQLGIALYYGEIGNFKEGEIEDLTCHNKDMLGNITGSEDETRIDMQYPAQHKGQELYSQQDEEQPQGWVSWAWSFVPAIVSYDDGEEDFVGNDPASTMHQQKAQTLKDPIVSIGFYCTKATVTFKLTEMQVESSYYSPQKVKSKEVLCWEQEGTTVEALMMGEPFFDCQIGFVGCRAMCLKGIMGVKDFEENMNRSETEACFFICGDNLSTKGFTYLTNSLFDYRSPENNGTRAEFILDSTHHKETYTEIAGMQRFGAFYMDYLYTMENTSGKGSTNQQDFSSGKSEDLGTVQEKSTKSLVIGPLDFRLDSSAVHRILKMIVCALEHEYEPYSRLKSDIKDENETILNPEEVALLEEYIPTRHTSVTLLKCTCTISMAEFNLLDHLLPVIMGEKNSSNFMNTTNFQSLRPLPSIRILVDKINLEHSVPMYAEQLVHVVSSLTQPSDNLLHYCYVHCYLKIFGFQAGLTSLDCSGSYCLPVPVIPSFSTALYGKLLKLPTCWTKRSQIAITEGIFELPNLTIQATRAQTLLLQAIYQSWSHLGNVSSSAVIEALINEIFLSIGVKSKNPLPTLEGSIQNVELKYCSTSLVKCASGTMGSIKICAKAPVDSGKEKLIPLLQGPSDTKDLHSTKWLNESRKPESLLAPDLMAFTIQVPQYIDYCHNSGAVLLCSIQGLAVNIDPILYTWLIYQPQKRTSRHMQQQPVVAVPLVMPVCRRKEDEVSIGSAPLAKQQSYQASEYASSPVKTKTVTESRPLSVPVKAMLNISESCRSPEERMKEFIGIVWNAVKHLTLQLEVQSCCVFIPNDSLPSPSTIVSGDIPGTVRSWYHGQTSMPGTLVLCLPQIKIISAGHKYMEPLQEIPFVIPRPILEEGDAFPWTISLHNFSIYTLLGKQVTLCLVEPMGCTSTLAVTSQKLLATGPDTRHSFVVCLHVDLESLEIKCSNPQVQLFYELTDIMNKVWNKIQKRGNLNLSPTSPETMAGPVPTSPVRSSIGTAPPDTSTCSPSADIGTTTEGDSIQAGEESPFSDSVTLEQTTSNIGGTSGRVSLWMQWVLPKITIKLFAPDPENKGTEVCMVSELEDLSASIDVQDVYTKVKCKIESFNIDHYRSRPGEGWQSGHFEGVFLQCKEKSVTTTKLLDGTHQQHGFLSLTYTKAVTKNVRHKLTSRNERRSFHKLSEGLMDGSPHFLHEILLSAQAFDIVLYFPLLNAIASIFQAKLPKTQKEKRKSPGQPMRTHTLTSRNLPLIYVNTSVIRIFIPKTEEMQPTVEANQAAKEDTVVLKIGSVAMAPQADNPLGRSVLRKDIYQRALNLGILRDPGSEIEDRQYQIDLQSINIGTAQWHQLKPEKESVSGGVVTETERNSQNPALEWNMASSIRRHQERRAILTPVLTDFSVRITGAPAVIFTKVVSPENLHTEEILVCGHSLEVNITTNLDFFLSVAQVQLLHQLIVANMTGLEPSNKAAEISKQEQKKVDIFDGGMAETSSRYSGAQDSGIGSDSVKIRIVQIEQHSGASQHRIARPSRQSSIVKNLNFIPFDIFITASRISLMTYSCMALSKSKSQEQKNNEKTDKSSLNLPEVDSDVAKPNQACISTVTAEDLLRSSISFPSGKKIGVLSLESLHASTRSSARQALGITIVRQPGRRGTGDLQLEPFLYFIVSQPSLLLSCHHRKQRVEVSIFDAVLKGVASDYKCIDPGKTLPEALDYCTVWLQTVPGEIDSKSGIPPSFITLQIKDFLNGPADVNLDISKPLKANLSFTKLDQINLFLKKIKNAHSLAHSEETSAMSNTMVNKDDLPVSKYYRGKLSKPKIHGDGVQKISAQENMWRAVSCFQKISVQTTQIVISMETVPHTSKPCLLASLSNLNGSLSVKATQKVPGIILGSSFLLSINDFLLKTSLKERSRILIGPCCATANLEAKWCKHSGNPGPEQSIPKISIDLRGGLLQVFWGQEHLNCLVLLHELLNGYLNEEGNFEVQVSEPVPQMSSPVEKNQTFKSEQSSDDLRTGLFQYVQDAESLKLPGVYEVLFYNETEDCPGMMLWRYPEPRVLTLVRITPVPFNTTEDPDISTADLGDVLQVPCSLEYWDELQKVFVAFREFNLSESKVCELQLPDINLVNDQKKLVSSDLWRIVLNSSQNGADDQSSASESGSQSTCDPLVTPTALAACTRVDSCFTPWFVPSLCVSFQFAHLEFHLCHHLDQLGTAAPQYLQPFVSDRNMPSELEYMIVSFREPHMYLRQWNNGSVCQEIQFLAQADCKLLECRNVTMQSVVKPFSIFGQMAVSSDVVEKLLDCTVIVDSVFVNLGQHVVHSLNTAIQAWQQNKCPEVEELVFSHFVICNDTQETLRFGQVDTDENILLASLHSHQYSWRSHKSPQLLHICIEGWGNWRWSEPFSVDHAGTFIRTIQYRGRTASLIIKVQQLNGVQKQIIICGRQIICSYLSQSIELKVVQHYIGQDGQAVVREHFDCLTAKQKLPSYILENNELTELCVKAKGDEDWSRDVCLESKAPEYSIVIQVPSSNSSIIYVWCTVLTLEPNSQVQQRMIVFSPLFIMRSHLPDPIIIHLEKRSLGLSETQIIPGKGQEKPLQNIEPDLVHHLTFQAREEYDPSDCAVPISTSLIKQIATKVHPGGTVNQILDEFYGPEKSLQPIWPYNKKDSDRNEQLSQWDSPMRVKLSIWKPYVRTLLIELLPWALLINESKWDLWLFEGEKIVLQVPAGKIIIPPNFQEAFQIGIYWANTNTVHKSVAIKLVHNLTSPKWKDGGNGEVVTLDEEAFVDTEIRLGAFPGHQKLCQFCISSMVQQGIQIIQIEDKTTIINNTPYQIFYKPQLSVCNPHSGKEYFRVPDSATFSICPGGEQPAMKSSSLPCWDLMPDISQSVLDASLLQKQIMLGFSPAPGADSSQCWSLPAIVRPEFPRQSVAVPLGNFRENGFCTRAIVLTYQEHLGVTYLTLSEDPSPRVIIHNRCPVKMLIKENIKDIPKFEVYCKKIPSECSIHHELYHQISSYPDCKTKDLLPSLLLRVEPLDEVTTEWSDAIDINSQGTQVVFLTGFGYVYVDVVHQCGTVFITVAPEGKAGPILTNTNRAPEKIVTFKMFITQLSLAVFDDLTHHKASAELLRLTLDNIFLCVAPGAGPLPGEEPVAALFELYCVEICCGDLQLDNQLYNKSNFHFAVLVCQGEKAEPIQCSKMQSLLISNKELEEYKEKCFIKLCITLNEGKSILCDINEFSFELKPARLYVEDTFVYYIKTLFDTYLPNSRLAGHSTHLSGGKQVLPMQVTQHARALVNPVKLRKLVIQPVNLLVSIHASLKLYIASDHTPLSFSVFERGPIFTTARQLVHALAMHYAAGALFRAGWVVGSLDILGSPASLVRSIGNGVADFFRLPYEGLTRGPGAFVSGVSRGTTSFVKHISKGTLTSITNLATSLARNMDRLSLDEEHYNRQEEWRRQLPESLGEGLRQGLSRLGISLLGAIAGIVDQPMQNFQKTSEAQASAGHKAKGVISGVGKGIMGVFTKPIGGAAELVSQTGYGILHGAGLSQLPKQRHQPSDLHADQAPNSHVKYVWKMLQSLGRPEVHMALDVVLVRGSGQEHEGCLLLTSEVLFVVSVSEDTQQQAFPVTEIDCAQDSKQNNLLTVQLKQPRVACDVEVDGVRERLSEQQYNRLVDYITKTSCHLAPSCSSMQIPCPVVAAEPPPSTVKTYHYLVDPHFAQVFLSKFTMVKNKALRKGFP
UniProt Q15075: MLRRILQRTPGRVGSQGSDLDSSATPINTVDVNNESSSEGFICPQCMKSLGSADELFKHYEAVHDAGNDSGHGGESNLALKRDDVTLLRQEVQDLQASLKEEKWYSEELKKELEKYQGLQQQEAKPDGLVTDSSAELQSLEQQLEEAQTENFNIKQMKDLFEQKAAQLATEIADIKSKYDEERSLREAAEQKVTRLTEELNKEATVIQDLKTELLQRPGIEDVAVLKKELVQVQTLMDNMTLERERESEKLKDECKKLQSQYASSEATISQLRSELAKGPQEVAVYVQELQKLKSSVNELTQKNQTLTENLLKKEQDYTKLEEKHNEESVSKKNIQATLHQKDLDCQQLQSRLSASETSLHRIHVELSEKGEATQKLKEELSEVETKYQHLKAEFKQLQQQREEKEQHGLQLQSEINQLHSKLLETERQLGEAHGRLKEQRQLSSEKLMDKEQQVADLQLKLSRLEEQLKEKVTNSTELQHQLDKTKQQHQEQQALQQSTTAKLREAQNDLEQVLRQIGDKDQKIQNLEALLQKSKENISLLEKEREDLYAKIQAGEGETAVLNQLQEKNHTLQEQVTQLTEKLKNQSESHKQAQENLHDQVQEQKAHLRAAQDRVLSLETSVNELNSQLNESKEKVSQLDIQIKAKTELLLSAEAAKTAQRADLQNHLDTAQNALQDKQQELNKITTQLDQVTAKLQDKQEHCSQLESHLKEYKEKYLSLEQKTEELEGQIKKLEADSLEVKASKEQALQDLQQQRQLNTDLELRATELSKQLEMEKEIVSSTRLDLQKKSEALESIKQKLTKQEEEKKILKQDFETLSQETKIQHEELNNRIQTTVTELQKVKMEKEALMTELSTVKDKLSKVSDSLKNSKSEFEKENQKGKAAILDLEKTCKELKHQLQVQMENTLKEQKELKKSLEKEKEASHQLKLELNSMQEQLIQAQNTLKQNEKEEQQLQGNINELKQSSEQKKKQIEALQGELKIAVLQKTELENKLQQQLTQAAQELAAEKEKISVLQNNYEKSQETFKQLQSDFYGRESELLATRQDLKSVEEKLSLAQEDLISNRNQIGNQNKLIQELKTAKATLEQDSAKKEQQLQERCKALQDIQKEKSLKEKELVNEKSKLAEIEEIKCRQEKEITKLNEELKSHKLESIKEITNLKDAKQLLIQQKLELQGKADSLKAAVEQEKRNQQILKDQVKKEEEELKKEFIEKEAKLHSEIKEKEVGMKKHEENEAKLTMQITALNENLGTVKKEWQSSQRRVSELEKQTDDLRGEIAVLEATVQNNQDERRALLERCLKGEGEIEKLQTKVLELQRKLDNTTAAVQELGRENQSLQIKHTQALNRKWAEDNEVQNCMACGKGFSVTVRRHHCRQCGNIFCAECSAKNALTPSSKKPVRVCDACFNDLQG

What was measured:
[1] = biological target: T1, syntaxin 6 (Stx6), full-length, reconstituted in liposomes (Rattus norvegicus) (UniProt Q63635); assay: recruitment to proteoliposomes, immunoblot; SNARE-containing proteoliposomes incubated with HeLa cytosol (cell-free supernatant) 30 min at 37 °C; unbound protein separated by a flotation gradient or liposomes captured on streptavidin Dynabeads (methods); liposome fraction immunoblotted; protein-free liposomes as control; only the target purified
T1 sequence: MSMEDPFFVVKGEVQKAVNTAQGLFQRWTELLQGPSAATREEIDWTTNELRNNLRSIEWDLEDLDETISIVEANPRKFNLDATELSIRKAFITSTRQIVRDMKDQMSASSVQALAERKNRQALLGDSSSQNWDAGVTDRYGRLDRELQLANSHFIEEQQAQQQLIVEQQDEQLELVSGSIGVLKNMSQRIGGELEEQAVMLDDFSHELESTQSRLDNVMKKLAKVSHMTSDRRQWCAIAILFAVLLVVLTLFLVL

[2] = biological target: T2, Stx6 and Stx13 together in one liposome (Rattus norvegicus) (UniProt Q63635+G3V7P1); assay: as above
T2 sequence 1: T1 sequence
T2 sequence 2: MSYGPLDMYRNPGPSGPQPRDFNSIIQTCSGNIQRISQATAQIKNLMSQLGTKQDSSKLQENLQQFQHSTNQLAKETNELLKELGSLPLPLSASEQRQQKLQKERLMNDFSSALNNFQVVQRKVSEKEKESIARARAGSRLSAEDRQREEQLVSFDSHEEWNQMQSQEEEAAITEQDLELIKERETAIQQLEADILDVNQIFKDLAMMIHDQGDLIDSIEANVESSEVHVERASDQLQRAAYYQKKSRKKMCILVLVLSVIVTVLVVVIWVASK

[3] = biological target: T3, syntaxin 13 (Stx13), reconstituted in liposomes (Rattus norvegicus) (UniProt G3V7P1); assay: as above
T3 sequence: T2 sequence 2

[4] = biological target: T4, syntaxin 6 (Stx6), HeLa cells (human (endogenous in HeLa)) (UniProt O43752); assay: co-IP; endogenous SNAREs (Stx6, Stx13, Stx16, Stx4) immunoprecipitated from HeLa detergent extracts; immunoblot for Vps13B
T4 sequence: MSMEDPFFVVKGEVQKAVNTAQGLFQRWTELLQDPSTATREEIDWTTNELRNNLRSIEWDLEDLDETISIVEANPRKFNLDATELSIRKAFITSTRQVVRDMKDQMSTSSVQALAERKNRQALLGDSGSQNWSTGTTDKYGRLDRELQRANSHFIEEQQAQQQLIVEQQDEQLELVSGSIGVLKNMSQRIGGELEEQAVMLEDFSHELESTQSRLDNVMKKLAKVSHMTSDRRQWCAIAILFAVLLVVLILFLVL

[5] = biological target: T5, syntaxin 16 (Stx16), HeLa cells (human (endogenous in HeLa)) (UniProt O14662); assay: as above
T5 sequence: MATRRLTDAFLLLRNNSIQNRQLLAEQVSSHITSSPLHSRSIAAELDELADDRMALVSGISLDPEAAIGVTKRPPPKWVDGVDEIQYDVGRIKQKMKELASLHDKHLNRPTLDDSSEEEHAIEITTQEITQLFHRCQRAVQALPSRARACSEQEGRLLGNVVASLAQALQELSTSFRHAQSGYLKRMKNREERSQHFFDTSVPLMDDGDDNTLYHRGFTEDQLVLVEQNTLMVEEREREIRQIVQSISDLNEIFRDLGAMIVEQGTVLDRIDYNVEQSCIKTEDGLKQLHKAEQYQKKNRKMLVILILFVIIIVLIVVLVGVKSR

[6] = biological target: syntaxin 4 (Stx4), HeLa cells (human (endogenous in HeLa)) (UniProt Q12846); assay: as above
[7] = biological target: T6, syntaxin 13 (Stx13), HeLa cells (human (endogenous in HeLa)) (UniProt Q86Y82); assay: as above
T6 sequence: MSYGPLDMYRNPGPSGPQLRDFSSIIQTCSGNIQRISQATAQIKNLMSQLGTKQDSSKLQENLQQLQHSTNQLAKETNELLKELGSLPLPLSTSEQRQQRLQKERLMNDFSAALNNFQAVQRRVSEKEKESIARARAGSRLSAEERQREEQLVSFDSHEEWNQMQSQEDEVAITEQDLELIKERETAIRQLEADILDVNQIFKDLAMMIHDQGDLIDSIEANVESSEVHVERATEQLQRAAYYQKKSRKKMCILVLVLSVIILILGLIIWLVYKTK

[8] = biological target: Vps13B (human (endogenous in HeLa)) (UniProt Q7Z7G8); assay: co-IP; endogenous Vps13B immunoprecipitated from detergent extracts of HeLa cells (1% Triton X-100, 150 mM NaCl); immunoblot for SNAREs
[9] = biological target: T4, syntaxin 6 (Stx6), HeLa cells (human (endogenous in HeLa)); assay: co-IP; co-immunoprecipitation of Stx6 and Vps51 (Supplementary Fig. 3a); lysis buffer 50 mM Tris-HCl pH 7.4, 150 mM NaCl, 1% Triton X-100; antibody and bait not given
[10] = biological target: T1, syntaxin 6 (Stx6), full-length, reconstituted in liposomes (Rattus norvegicus); assay: recruitment to proteoliposomes, immunoblot; SNARE-containing proteoliposomes incubated with HeLa cytosol (cell-free supernatant) 30 min at 37 °C; unbound protein separated by a flotation gradient or liposomes captured on streptavidin Dynabeads (methods); liposome fraction immunoblotted; protein-free liposomes as control; only the target purified; remark: listed apart in the source
[11] = biological target: T7, N-terminally truncated syntaxin 6 (ΔN-Stx6, residues 169–255), reconstituted in liposomes (Rattus norvegicus) (UniProt Q63635); assay: as above
T7 sequence: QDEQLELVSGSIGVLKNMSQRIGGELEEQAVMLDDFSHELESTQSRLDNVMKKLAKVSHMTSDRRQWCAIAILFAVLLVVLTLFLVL

binding [1]: no binding
binding [2]: no binding
binding [3]: no binding
Molecule: EEA1 (early endosome antigen 1) (from UniProt Q15075 1-1411)

binding [2]: binds
binding [4]: binds
binding [5]: no binding
binding [6]: no binding
binding [7]: binds
Molecule: Vps13B (from UniProt Q7Z7G8-2 1-3997)

binding [8]: no binding
B1: VAMP4, HeLa cells (protein, UniProt O75379 1-141)
chain: MPPKFKRHLNDDDVTGSVKSERRNLLEDDSDEEEDFFLRGPSGPRFGPRNDKIKHVQNQVDEVIDVMQENITKVIERGERLDELQDKSESLSDNATAFSNRSKQLRRQMWWRGCKIKAIMALVAAILLLVIIILIVMKYRT

binding [8]: binds
B2: syntaxin 13 (Stx13), HeLa cells (protein, UniProt Q86Y82 1-276)
chain: T6 sequence

binding [9]: binds
binding [10]: binds
binding [11]: no binding
B3: Vps51 (protein, UniProt Q9UID3 1-782)
chain: MAAAAAAGPSPGSGPGDSPEGPEGEAPERRRKAHGMLKLYYGLSEGEAAGRPAGPDPLDPTDLNGAHFDPEVYLDKLRRECPLAQLMDSETDMVRQIRALDSDMQTLVYENYNKFISATDTIRKMKNDFRKMEDEMDRLATNMAVITDFSARISATLQDRHERITKLAGVHALLRKLQFLFELPSRLTKCVELGAYGQAVRYQGRAQAVLQQYQHLPSFRAIQDDCQVITARLAQQLRQRFREGGSGAPEQAECVELLLALGEPAEELCEEFLAHARGRLEKELRNLEAELGPSPPAPDVLEFTDHGGSGFVGGLCQVAAAYQELFAAQGPAGAEKLAAFARQLGSRYFALVERRLAQEQGGGDNSLLVRALDRFHRRLRAPGALLAAAGLADAATEIVERVARERLGHHLQGLRAAFLGCLTDVRQALAAPRVAGKEGPGLAELLANVASSILSHIKASLAAVHLFTAKEVSFSNKPYFRGEFCSQGVREGLIVGFVHSMCQTAQSFCDSPGEKGGATPPALLLLLSRLCLDYETATISYILTLTDEQFLVQDQFPVTPVSTLCAEARETARRLLTHYVKVQGLVISQMLRKSVETRDWLSTLEPRNVRAVMKRVVEDTTAIDVQVGLLYEEGVRKAQSSDSSKRTFSVYSSSRQQGRYAPSYTPSAPMDTNLLSNIQKLFSERIDVFSPVEFNKVSVLTGIIKISLKTLLECVRLRTFGRFGLQQVQVDCHFLQLYLWRFVADEELVHLLLDEVVASAALRCPDPVPMEPSVVEVICERG

binding [8]: binds
B4: syntaxin 6 (Stx6), HeLa cells (protein, UniProt O43752 1-255)
chain: T4 sequence
